Reference: PubChem BioAssay AID624417 (National Center for Advancing Translational Sciences (NCATS), 2012)
Screen size: about 410,000 compounds; about 6,400 (1.6%) were called active. This list was built around the results that the source calls inconclusive (neither active nor inactive); the mix of calls is not that of the screen. Calls come from the whole dose curve; as a rule, active = well fitted inhibition curve with a large enough effect; inconclusive = small, poorly fitted or top-dose-only effect; inactive = no such curve, though single readings can be large or run the other way. Where the call is inconclusive, the potency comes from a doubtful curve fit.

Each compound was assayed against Glucagon-like peptide 1 receptor (Homo sapiens) (UniProt P43220) (assay: qHTS of GLP-1 Receptor Inverse Agonists (Inhibition Mode)). Conditions: HEK293 GLP-1R CRE-luciferase, luminescence, 24 h, GLP-1R form is constitutively active; activity change, negative = inhibition: at 38.3 µM (top of the series) unless noted.
Outline: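 qHTS in 1536-well format: reporter HEK293 cells expressing constitutive GLP-1R activity in DMEM + 10% Nu serum, 24 hr with compounds at 37 deg C, luminescence read after 12 min with detection reagent.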
% is set by controls: 0 for no effect and ±100 for the full control effect; potency is the fitted concentration of half-maximal effect; tags give direction and shape of the fitted curve.
Note: nearly all actives have a fitted effect of over 55% in size.

Chain of UniProt P43220 (P43220 whole entry, looked up): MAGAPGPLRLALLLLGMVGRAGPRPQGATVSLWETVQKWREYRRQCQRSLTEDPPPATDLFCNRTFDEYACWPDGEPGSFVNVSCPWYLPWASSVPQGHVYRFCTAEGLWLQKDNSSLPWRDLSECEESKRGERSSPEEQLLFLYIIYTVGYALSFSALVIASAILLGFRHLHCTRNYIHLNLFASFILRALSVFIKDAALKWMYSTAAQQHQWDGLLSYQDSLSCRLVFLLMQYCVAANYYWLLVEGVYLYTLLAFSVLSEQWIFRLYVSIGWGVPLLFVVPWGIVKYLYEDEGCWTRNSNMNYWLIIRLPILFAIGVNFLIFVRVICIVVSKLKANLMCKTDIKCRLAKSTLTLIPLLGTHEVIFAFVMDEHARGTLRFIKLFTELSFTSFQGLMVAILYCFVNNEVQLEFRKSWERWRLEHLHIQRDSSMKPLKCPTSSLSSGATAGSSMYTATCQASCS

Potency, inconclusive:
Cc1ccc(Cl)cc1NC(=O)NCc1ccccn1 6.31 µM [inhibitor, partial curve, poor fit]
CCN(CC)C(=O)C1=C(C)N(Cc2ccc(C(C)(C)C)cc2)C(=O)C(CC(=O)NCc2cccs2)C1 (configuration not stated) 8.91 µM [inhibitor, partial curve, poor fit]
Cc1ccc(CSc2oc(-c3ccco3)nc2S(=O)(=O)c2ccc(Cl)cc2)cc1 28.2 µM [inhibitor, single point]
CCOC(=O)c1cnc(Nc2nc3ccccc3o2)nc1C 2 µM [inhibitor, full curve, poor fit]
O=C(CN1CCCN(Cc2ccc(F)cc2Cl)C1=O)NC1CCCCCC1 17.8 µM [inhibitor, single point]
CCCNC(=S)N1CCC(C(=O)c2ccc(OC)cc2)CC1 12.6 µM [inhibitor, partial curve, poor fit]
CC(=O)Nc1cccc(-c2cc(NC=O)c3ncc(-c4ccc(F)c(Cl)c4)n3c2)c1 28.2 µM [inhibitor, single point]
Fc1cccc(Cl)c1Cn1nnc(-c2ccc3c(c2)OCO3)n1 28.2 µM [inhibitor, single point]
CN(C)C(CNC(=O)C1CC(=O)N(c2cccc(C(F)(F)F)c2)C1)c1ccccc1 (configuration not stated) 31.6 µM [inhibitor, single point]
CCOC(=O)C1(CCCc2ccccc2)CCN(C(=O)CCc2cnccn2)CC1 28.2 µM [inhibitor, single point]
CCC(C(=O)Nc1cc(Cl)c(OC)cc1OC)c1ccccc1 (configuration not stated) 10 µM [inhibitor, partial curve, poor fit]
C/C(N)=C(/C#N)C(=O)COC(=O)C1CCC(C(C)(C)C)CC1 (configuration not stated) 28.2 µM [inhibitor, single point]
CCOC(=O)N1CCN(C(=O)c2ccc3c(=O)n(Cc4ccc(OC)cc4)c(=S)[nH]c3c2)CC1 10 µM [inhibitor, partial curve, poor fit]
CCN(CC)CCCN(C(=O)c1ccc(OC)cc1)c1nc(-c2ccc(OC)cc2)cs1 28.2 µM [inhibitor, single point]
O=C(/C=C/c1c(F)cccc1Cl)c1ccc(O)cc1 28.2 µM [inhibitor, single point]
CCCCn1c(SCC(=O)Nc2cccc(OC)c2)nc2ccsc2c1=O 20 µM [inhibitor, single point]
N=C(N)SCc1nc2ccccn2c1Br 10 µM [inhibitor, partial curve]
Cc1cc(C)c(C)c(S(=O)(=O)NCC(=O)Nc2ccc(F)cc2)c1C 12.6 µM [inhibitor, partial curve, poor fit]
Cc1ccc(NC(=O)c2cn(-c3ccccc3)nc2-c2ccccc2)cc1 11.2 µM [inhibitor, single point]
COc1ccc(-n2cc(-c3ccccc3)c3c(NCc4cccc(Cl)c4)ncnc32)cc1 6.31 µM [inhibitor, partial curve, poor fit]
CN1C(=O)/C(=C/c2cccc([N+](=O)[O-])c2)C(=O)N1c1ccccc1 2.51 µM [inhibitor, full curve, poor fit]
O=C(Nc1nc(-c2ccccc2)cs1)C1CCCN(S(=O)(=O)c2cccc([N+](=O)[O-])c2)C1 (configuration not stated) 6.31 µM [inhibitor, partial curve, poor fit]
COc1cccc(C(C(=O)NCc2ccccc2)N2CCN(c3cccc(C)c3C)CC2)c1OC (configuration not stated) 12.6 µM [inhibitor, partial curve, poor fit]
C[C@@]12CCC3[C@@](CCC4[C@@]3(C)CCC[C@@]4(C)C(=O)NC3CCCCC3)(CC1=O)C2 (some centres not stated) 11.2 µM [inhibitor, single point]
Cc1c(C(=O)OC(C)C)sc(N)c1C(=O)OC(C)C 28.2 µM [inhibitor, single point]
COc1ccc(Nc2ncnc3onc(-c4ccc(Cl)cc4)c23)cc1Cl 10 µM [inhibitor, partial curve, poor fit]
Cc1c(CCC(=O)NCCCn2ccnc2)c(=O)oc2c(C)c3occ(C(C)(C)C)c3cc12 15.8 µM [inhibitor, single point]
COc1cc(/C=N/NC(N)=S)ccc1OC(=O)c1ccc(C)cc1 28.2 µM [inhibitor, single point]
CCC(NC(=O)C1(C)CC1(Br)Br)c1ccc(C)cc1 (configuration not stated) 12.6 µM [inhibitor, single point]
O=C(Nc1nccs1)C1CCN(S(=O)(=O)c2c(Cl)cccc2Cl)CC1 10 µM [inhibitor, partial curve, poor fit]
CN(Cc1cccnc1)C(=O)c1cc(COc2ccc3c(c2)CCCC3)on1 14.1 µM [inhibitor, single point]
CC(Oc1ccc(F)cc1)C(=O)Nc1cccc(S(=O)(=O)N(C)c2ccccc2)c1 (configuration not stated) 11.2 µM [inhibitor, partial curve, poor fit]
O=C(CNC(=O)c1ccco1)N=Nc1c(O)n(CCc2ccccc2)c2ccccc12 1.58 µM [inhibitor, full curve, poor fit]
NC(c1csc(Nc2ccc(C(F)(F)F)cn2)n1)C1CCCCC1 (configuration not stated) 10 µM [inhibitor, partial curve, poor fit]
Cn1nc(C(F)(F)F)c(-c2ccccc2)c1NC(=O)c1ccco1 15.8 µM [inhibitor, single point]
Cc1nc2c(F)c(F)c(C(F)(F)F)c(F)c2[nH]1 8.91 µM [inhibitor, partial curve, poor fit]
COc1ccc(OC)c(/C=C/C(=O)N2CCN(S(=O)(=O)c3cc(C)ccc3C)CC2)c1 11.2 µM [inhibitor, single point]
COc1ccccc1NC(=O)c1c(C)cc(C)nc1SCC(=O)Nc1cccc(C)c1 28.2 µM [inhibitor, single point]
O=C(CCC(=O)c1ccc(Br)cc1)Nc1ccc(F)cc1 11.2 µM [inhibitor, partial curve]
O=C(Nc1ccc(Cl)c(C(F)(F)F)c1)C1Cc2c(-c3ccc4c(c3)OCO4)ccnc2O1 (configuration not stated) 28.2 µM [inhibitor, single point]
COc1ccc(CNC(=O)C2CCCN2CCc2ccccc2)cc1OC (configuration not stated) 28.2 µM [inhibitor, single point]
Cc1nc(NCC(c2ccccc2)N(C)C)c2c(C)c(C)sc2n1 (configuration not stated) 10 µM [inhibitor, partial curve, poor fit]
CCCc1c(C(=O)NNc2cc(C(F)(F)F)ccc2Cl)cnn1-c1ccccc1 3.55 µM [inhibitor, full curve, poor fit]
O=C(NCCC1=CCCCC1)C1CCC(=O)N(Cc2ccc(Cl)cc2)C1 (configuration not stated) 28.2 µM [inhibitor, single point]
CCc1c(C)c(C#N)c2nc3ccccc3n2c1NCc1ccco1 20 µM [inhibitor, single point]
COc1ccc(CN2CC[C@H]3C=CC[C@@H](C(=O)Nc4ccc(Cl)c(C(F)(F)F)c4)[C@H]3C2=O)cc1OC 12.6 µM [inhibitor, single point]
Cc1ccc(C)c(N(C(=O)CNC(=O)c2ccco2)C(C(=O)NCC2CCCO2)c2ccccc2)c1 (configuration not stated) 28.2 µM [inhibitor, single point]
COc1ccc(-c2nnc(NC(=O)c3cc(Cl)ccc3Cl)o2)cc1 25.1 µM [inhibitor, single point]
Cc1cccc(S(=O)(=O)Nc2ccc(C)c3c2OC(C)(C)C3)c1 8.91 µM [inhibitor, partial curve]
Cc1cccc(C(=O)N2N=C(c3ccc(NS(C)(=O)=O)cc3)CC2c2cccs2)c1 (configuration not stated) 22.4 µM [inhibitor, single point]

Potency, active:
O=C1c2ccccc2-c2onc3c(N4CCN(CCO)CC4)cc(N4CCN(C(=O)c5ccco5)CC4)c1c23 11.2 µM
O=C(Nc1ccc(Oc2ccccc2)nc1)C1CCN(Cc2ccccc2)CC1 11.2 µM
O=C(Nc1ccc(F)c(Cl)c1)C1Cc2ccccc2CN1S(=O)(=O)c1ccc(F)cc1 (configuration not stated) 10 µM

Activity change, negative = inhibition, inactive:
CC(C)c1ccc(Nc2c(-c3ccc(N4CCOCC4)cc3)nc3ncccn23)cc1 -7.15%
CCc1nc2ccc(C(=O)N3CCCCC3)cn2c1N(CCC(C)C)CCN(C)C -25.4%
COc1ccc(NC(=O)C2CCC(CNS(=O)(=O)c3csc(C(N)=O)c3)CC2)cc1 (configuration not stated) 2.17%
COc1cc(C(=O)N(Cc2cccnc2)Cc2cc3cc4c(cc3[nH]c2=O)OCCO4)cc(OC)c1OC -1.45%
CCC(CO)Nc1ccn2nc(-c3cccs3)cc2n1 (configuration not stated) 30.2%
Clc1ccc2c(NCc3ccco3)ncnc2c1 10.9%
COc1ccc2c(c1)CCc1sc(NC(=O)c3ccco3)nc1-2 -9.33%
Cc1nn(Cc2cccc(F)c2)c(C)c1NC(=O)c1c(Cl)cnn1C -0.355%
Cc1cc(NC(=O)C(C)SCC(=O)Nc2ccccc2C(C)(C)C)no1 (configuration not stated) -2.83%
